The text below walks through data of publication PMC5460246.

Experiment [1] addresses T1, Ndd1-VC (budding yeast) (UniProt Q08887).
T1 sequence: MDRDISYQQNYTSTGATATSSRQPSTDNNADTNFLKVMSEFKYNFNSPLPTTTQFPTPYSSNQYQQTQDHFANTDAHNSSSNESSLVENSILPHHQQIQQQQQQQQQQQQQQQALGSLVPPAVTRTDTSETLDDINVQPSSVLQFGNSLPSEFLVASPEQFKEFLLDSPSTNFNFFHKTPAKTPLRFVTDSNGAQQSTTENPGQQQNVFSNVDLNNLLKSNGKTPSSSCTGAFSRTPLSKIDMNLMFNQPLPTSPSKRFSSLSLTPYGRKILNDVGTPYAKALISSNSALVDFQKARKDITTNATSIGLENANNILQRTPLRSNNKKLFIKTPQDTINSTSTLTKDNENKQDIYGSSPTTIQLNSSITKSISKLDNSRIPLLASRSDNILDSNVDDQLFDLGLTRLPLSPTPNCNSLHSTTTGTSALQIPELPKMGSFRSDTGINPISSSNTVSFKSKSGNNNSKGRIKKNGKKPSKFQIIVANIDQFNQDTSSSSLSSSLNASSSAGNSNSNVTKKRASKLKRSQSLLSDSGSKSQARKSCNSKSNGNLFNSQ
As to the kind of experiment: split reporter; BiFC with Venus fragments: Ndd1-VC in haploid yeast cells, VN fusions from p426 plasmids; fluorescence microscopy; for Fkh2/Ndd1 followed in time after alpha-factor synchronisation and in hydroxyurea-treated cells.

In experiment [2] the target is T2, Fkh2 full-length (two-hybrid bait) (budding yeast) (UniProt P41813).
T2 sequence: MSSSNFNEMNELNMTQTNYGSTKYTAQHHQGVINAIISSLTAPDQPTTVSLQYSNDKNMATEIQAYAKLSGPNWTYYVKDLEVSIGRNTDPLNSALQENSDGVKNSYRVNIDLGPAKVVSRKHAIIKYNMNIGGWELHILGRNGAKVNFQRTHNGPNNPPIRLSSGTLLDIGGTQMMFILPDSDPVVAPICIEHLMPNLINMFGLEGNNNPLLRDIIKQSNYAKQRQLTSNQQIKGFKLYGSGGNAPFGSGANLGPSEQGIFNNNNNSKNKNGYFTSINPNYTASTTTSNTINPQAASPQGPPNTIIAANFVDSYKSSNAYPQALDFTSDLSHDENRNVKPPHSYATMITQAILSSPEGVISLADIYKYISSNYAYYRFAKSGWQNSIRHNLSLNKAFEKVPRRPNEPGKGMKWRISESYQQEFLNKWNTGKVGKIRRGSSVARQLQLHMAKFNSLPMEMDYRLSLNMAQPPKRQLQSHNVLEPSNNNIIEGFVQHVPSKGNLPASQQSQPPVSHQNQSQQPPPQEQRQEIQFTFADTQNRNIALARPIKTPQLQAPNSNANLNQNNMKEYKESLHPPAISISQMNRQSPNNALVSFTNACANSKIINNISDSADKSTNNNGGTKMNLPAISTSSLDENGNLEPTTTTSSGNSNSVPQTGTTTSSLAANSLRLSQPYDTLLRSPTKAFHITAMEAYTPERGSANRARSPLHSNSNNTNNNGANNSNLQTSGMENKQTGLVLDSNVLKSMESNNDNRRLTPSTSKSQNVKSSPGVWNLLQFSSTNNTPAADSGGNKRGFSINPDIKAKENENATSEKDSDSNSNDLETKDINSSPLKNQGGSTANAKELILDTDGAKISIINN
Briefly: two-hybrid; LexA-Fkh2 baits (pBTM117) and AD-Clb1-6 preys (pACT4), overexpressed; yeast spotted onto SDII and SDIV selective media or on a membrane for beta-galactosidase activity.

In experiment [3] the target is T3, LexA-Fkh2_(387), truncated C-terminal region of Fkh2 (amino acids 387-862) (budding yeast) (UniProt P41813).
T3 sequence: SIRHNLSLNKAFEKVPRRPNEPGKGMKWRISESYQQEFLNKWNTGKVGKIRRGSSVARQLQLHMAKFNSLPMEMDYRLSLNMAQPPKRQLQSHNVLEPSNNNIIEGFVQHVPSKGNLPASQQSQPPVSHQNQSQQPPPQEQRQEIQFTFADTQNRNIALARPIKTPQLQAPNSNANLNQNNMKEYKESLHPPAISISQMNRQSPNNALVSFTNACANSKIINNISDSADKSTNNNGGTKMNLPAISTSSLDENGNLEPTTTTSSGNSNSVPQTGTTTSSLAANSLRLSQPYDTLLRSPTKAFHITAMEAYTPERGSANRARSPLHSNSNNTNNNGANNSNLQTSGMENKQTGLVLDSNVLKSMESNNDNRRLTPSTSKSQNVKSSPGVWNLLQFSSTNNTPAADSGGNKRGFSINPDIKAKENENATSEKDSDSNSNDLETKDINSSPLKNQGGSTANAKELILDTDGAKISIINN
The description is as above.

No constants are given. Whether binding was seen depends on the method and setting. For some assays here: In cells and extracts the contact can be indirect. Some entries that bind do so weakly or less than the wild type. For some assays here: Sequences can lack the tags named with a protein.

B1: VN-Clb2 (protein, UniProt P24869 1-491)
chain: MSNPIENTENSQNTSSSRFLRNVQRLALNNVTNTTFQKSNANNPALTNFKSTLNSVKKEGSRIPQFTRESVSRSTAAQEEKRTLKENGIQLPKNNLLDDKENQDPSSQQFGALTSIKEGRAELPANISLQESSSAKEIIQHDPLKGVGSSTEVVHNSVENEKLHPARSQLQVRNTESETDSGKKRPISTIVEQELPKKFKVCDENGKEEYEWEDLDAEDVNDPFMVSEYVNDIFEYLHQLEVITLPKKEDLYQHRNIHQNRDILVNWLVKIHNKFGLLPETLYLAINIMDRFLGKELVQLDKLQLVGTSCLFIASKYEEVYSPSIKHFASETDGACTEDEIKEGEKFILKTLKFNLNYPNPMNFLRRISKADDYDIQSRTLAKFLLEISLVDFRFIGILPSLCAAAAMFMSRKMLGKGKWDGNLIHYSGGYTKEELAPVCHMIMDYLVSPIVHDEFHRKYQSRRFMKASIISVQWALKVRKNGYDIMTLHE
As for B1, the binding entry in experiment [1] was “binds”.

B2: VN-Clb3 (protein, UniProt P24870 1-427)
chain: MHHNSQSLSSGHIRSPEDENVAPIGNLKHRTGSLSHISSAHPRVALSDVTNIVATNSSNNSISKPKVAPIKERLDSAAIIEEERLDANSVAQRKEADHNDLLTDREQEEPVEDDGESEEDEEEDQEPLLLQHYASDTLVWEHAFRTYYRTTLDPNDDDVYDVVMVAELSNEIFEYMRKLEDLYKPNPYYMDKQPELRWSFRSTLIDWIVQVHEKFQLLPETLYLCINIIDRYLCKEVVPVNKFQLVGAASLFIAAKYEEINCPTIKDFVYMSENCYSRNDLLDAERTILNGLEFELGWPGPMSFLRRISKADDYEHDTRTLAKYLLESTIMDHRLVSAQPSWLAAGAYFLSKIILGQNQWSLAHVYYSNYTQEQILPLATIILENCRYASKRHNAIWRKYSSRRYLHSSQIVAKWIALAEHRVERSN
On to B2, for which the binding entry in experiment [1] was “binds”.

B3: AD-Clb4 (protein, UniProt P24871 1-460)
chain: MMLEGYTVQPPQSTLIGDIEIQDENANQEVKNVLYQGVQKGIKRLEKRQRRVALGDVTSQKANKIHNAIHNKFHQTKNNFEIENIRSSALVKEQQRDVRHEDSDYFLIDSSEGSSTDDEQVNEDAIDDLLSRRVNDQQIQADEVYEDFDGEMQDVIEEDVDSQIEPLSPINNDEIQTELDRAFEKYFRSVPNPLDDDTHDVVMVVEYASDIFYYLRELEVKYRPNPYYMQNQVELTWPFRRTMIDWLVQLHFRFQLLPETLYLTINIVDRFLSKKTVTLNRFQLVGVSALFIAAKFEEINCPTLDDLVYMLENTYTRDDIIRAEQYMIDTLEFEIGWPGPMPFLRRISKADDYDFEPRTLAKYLLETTIVEPKLVAAAPSWLAAGAYFLSRTILGSNDWSLKHVFYSGYTSSQIIPLASLILENCKNASRRHHSIWKKYFDQKHYRCSQIVEEWIVSTEA
For the molecule B3, the binding result in experiment [2] and in experiment [3] was “binds” in each case.

B4: AD-Clb5 (protein, UniProt P30283 1-435)
chain: MGENHDHEQSIKRNSMIYNENERQLCNSNLKILQNKRALSKNDSSSKQQVQDSKPRRALTDVPVNNNPLSQNKRIVAGSKAAKVRREENIRPIVSAVQKRQIYNDRTAAEQEEEEEEEGEDDDAASIVNKKRRIDAEGVSEIVGWQDLDYVEKDDTAMVAEYSAEIFAFLYRRELETLPSHNYLLDKTSKYYLRPSMRTILVDWLVEVHEKFQCYPETLFLSINLMDRFLAKNKVTMNKLQLLAVTSLFIAAKFEEVNLPKLAEYAYITDGAASKNDIKNAEMFMLTSLEFNIGWPNPLNFLRRISKADDYDPVNRNIGKFILEYAYCCHQFIHLPPSTVSAMAMYIARRMTNRNKNELWNGTLQHYSGGIDPIHDEAFQSLCIDLVKDIASSKTHLDSLILKYKKPRYGSVYFQTFKWCTSEMHSNFQNLFNLK
With B4, the binding entry in experiment [2] and in experiment [3] was “binds” in each case.

B5: VN-Fkh2 (protein, UniProt P41813 1-862)
chain: T2 sequence
In the case of B5, the binding entry in experiment [1] is on record as “binds”.

B6: AD-Clb6 (protein, UniProt P32943 1-380)
chain: MNCIPSPISERKIQINNEDCIGKENAFHTIPRESSINLTPHSTNEKKVLSEVNSNKIDSLQLPRGKLQRDSTHLEKTRKRQLSNDSTDPIEPKTVKKIKCHQWKNLDSIEMDDPFMVAEYTDSIFSHLYEKEIQMLPTHNYLMDTQSPYHLKSSMRALLIDWLVEVHEKFHCLPETLFLAINLLDRFLSQNVVKLNKLQLLCITCLFIACKFEEVKLPKITNFAYVTDGAATVEGIRKAELFVLSSLGYNISLPNPLNFIRRISKADNYCIETRNMAKFIMEYSICCNKFIHLKPSYLAAMSMYIARKIKNENSKWDETFIHYSGGIDIESDPAFKDFISELVEDIAVPDTNLDSLRLKYKKPKHGMVYFKVFDWCKQKR
Turning to B6, the binding result in experiment [2] and in experiment [3] was “binds” in each case.

B7: AD-Clb1 (protein, UniProt P24868 1-471)
chain: MSRSLLVENSRTINSNEEKGVNESQYILQKRNVPRTILGNVTNNANILQEISMNRKIGMKNFSKLNNFFPLKDDVSRADDFTSSFNDSRQGVKQEVLNNKENIPEYGYSEQEKQQCSNDDSFHTNSTALSCNRLIYSENKSISTQMEWQKKIMREDSKKKRPISTLVEQDDQKKFKLHELTTEEEVLEEYEWDDLDEEDCDDPLMVSEEVNDIFDYLHHLEIITLPNKANLYKHKNIKQNRDILVNWIIKIHNKFGLLPETLYLAINIMDRFLCEEVVQLNRLQLVGTSCLFIASKYEEIYSPSIKHFAYETDGACSVEDIKEGERFILEKLDFQISFANPMNFLRRISKADDYDIQSRTLAKFLMEISIVDFKFIGILPSLCASAAMFLSRKMLGKGTWDGNLIHYSGGYTKAKLYPVCQLLMDYLVGSTIHDEFLKKYQSRRFLKASIISIEWALKVRKNGYDIMTLHE
In the case of B7, the binding result in experiment [2] and in experiment [3] was “binds” in each case.
